Measurements reported in PubChem BioAssay AID1347165 (National Center for Advancing Translational Sciences (NCATS), 2019).
In all, about 220,000 compounds went through this assay and about 5,700 (2.6%) were called active. The inconclusive results got no clear call from the source; some entries with a clear call stand among them for comparison. The call rests on the fitted dose curve; in most records, active means well fitted inhibition curve with a large enough effect; inconclusive means small, poorly fitted or top-dose-only effect; inactive means no such curve, though single readings can be large or run the other way. Where the call is inconclusive, the potency comes from a doubtful curve fit.

The compounds below were run against Lysine-specific demethylase 5B (Homo sapiens) (UniProt Q9UGL1) (assay: Primary screen for KDM5B Histone Demethylases FDH-coupled qHTS). Conditions: FDH-coupled NADH fluorescence (FDH is formaldehyde dehydrogenase); activity change, negative = inhibition: at 57.7 µM (top of the series) unless noted.
Summary of the method: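 KDM5BΔAP (200 nM final) in 50 mM HEPES pH 7.5, 0.01% Tween-20 was preincubated 10 min at RT with compound over a concentration range. Substrate mix (H3K4me3 12.5 µM, α-KG 25 µM, Fe²⁺, ascorbate, NAD⁺, FDH) was added, and NADH fluorescence change over 30 min gave dose-response curves.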
Further: nearly all actives have a fitted effect of over 70% in size.
Potency means the concentration at half of the fitted maximal effect; tags describe the fitted curve by direction and shape.
Wherever activity change, negative = inhibition is given: 0% is about no effect.

Chain of UniProt Q9UGL1 (Q9UGL1 whole entry, looked up): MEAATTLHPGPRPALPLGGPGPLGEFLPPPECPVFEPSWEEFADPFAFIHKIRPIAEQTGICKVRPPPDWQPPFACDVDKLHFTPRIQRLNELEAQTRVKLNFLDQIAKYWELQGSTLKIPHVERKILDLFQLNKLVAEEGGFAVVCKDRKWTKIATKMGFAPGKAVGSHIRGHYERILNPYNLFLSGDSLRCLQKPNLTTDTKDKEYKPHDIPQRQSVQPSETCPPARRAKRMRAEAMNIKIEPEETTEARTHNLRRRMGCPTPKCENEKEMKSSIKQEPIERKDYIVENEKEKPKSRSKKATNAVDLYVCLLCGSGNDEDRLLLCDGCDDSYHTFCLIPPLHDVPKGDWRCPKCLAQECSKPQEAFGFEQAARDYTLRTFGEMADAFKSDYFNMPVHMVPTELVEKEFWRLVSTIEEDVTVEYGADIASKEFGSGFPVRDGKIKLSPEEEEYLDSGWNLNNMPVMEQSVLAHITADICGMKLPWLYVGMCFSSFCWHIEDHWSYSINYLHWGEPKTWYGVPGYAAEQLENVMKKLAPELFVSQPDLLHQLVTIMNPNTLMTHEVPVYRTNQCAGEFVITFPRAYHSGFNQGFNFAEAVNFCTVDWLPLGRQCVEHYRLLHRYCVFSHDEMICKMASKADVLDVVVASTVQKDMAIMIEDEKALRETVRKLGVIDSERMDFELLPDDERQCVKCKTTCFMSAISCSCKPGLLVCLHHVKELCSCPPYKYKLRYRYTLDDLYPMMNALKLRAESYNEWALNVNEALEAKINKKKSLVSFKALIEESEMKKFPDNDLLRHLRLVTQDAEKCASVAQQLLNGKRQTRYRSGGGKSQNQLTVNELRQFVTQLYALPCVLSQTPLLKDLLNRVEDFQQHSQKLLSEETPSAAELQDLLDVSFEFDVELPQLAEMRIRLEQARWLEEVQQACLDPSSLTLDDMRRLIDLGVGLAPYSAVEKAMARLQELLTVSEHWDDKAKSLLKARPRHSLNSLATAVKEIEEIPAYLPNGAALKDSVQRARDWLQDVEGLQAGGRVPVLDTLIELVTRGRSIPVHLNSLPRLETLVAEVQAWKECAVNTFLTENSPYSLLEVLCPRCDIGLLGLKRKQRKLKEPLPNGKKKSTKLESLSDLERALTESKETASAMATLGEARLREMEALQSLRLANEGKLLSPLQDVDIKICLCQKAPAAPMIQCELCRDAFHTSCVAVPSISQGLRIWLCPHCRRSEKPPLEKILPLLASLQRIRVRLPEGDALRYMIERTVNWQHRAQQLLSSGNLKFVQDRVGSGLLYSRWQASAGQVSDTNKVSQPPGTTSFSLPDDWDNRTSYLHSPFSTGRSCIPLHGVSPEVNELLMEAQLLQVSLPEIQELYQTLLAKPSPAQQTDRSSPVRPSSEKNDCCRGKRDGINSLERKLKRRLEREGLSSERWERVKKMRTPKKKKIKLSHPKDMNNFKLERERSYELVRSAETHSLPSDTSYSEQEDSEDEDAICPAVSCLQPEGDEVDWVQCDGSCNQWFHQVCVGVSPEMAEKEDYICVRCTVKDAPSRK

Compound | Potency | activity change, negative = inhibition
Cc1oc(-c2nc(C#N)c(NCc3ccco3)o2)cc1S(=O)(=O)N1CCCC1 | inconclusive: 25.1 µM [inhibitor, partial curve, poor fit] | –
COC(=O)C1Cc2c([nH]c3ccccc23)CN1C(C)=O (stereo not given) | inconclusive: 22.4 µM [inhibitor, partial curve, poor fit] | –
CCNC(=O)N(C1CC1)C1CCOC2(CCN(C(=O)Cc3cccc(C)c3)CC2)C1 (stereo not given) | – | inactive: 10.5%
O=C(C1CN(C(=O)c2nn(-c3ccccc3)c(=O)c3ccccc23)c2ccccc2O1)N1CCOCC1 (stereo not given) | – | inactive: -0.867%
COc1ccc(S(=O)(=O)c2c(Nc3c(C)cccc3C)sc(C(=O)c3ccc(F)cc3)c2N)cc1 | inconclusive: 7.08 µM [inhibitor, partial curve, poor fit] | –
CCC(=O)Nc1nc(C)c(-c2csc(Nc3cccc(O)c3)n2)s1 | inconclusive: 39.8 µM [inhibitor, single point] | –
CCc1cccc(C)c1Nc1c(-c2ccc(SC)cc2)nc2sccn12 | inconclusive: 15.8 µM [inhibitor, partial curve, poor fit] | –
COc1cc(C(CC(=O)c2ccccc2)C(C#N)C#N)cc(OC)c1OC (stereo not given) | – | inactive: 7.09%
CN1CCN(C(C(=O)O)c2cn(Cc3ccccc3)c3cc(C(=O)O)ccc23)CC1 (stereo not given) | inconclusive: 25.1 µM [inhibitor, partial curve, poor fit] | –
Cc1cccc(NC(=O)Cn2c(=O)n(Cc3ccccc3)c(=O)c3sc4ccccc4c32)c1 | inconclusive: 0.794 µM [inhibitor, partial curve, poor fit] | –
COCC(C)Nc1nccc(C2(c3ccccc3Cl)CCNCC2)n1 (stereo not given) | active: 22.4 µM | –
COC(=O)c1cnc(Oc2ccc(NC(=O)NC(=O)c3c(F)cccc3Cl)cc2)cc1C(F)(F)F | inconclusive: 39.8 µM [inhibitor, partial curve, poor fit] | –
Cc1noc(C)c1CCC(=O)NCc1cccnc1N1CCOCC1 | inconclusive: 39.8 µM [inhibitor, single point] | –
COc1ccccc1-c1nc2cnccn2c1NCCC(=O)N1CCc2ccccc21 | active: 28.2 µM | –
CC(C)n1cc2cc(C(=O)NCCc3cccs3)sc2c1 | inconclusive: 14.1 µM [inhibitor, partial curve, poor fit] | –
CC(C)CCN1CCC2(CC1)NC(=O)c1ccccc1O2 | – | inactive: -4.02% [at 86.2 µM]
Brc1ccccc1-c1nnc(CN2CCc3ccccc3C2)o1 | – | inactive: -19.3%
CCNC(=O)c1ccc2c(c1)N(C(=O)c1ccc(F)cc1)CC2 | inconclusive: 39.8 µM [inhibitor, single point] | –
Cn1cccc1CN1CCC2(CC1)CC(=O)N(c1ccccc1)c1ccccc1O2 | – | inactive: -4.65%
Cc1ccc2nc([C@H]3CCN(C(=O)C4CC4)C3)[nH]c2c1 | inconclusive: 35.5 µM [inhibitor, single point] | –
COCCN1C(=O)C(=O)/C(=C(/O)c2ccc(S(=O)(=O)N3CCCCC3)cc2)C1c1ccc(OC)c(OC)c1 (stereo not given) | inconclusive: 35.5 µM [inhibitor, partial curve, poor fit] | –
CCCC1=C(C(=O)OCC)C(c2cccc(OC)c2)C(C#N)=C(N)O1 (stereo not given) | inconclusive: 15.8 µM [inhibitor, partial curve, poor fit] | –

Compound | Potency | activity change, negative = inhibition
CCCCN(Cc1ccc(S(=O)(=O)NC)cc1)Cc1ccco1 | – | inactive: -17.6%
COc1ccc(CSc2nc3ccncc3n2CC(=O)Nc2cc(C)cc(C)c2)cc1 | inconclusive: 2.24 µM [inhibitor, full curve, poor fit] | –
COc1ccc(-n2[nH]c(-c3ccccc3)cc2=O)cc1 | inconclusive: 10 µM [inhibitor, partial curve, poor fit] | –
Cc1csc2nc(COC(=O)CNC(=O)c3ccc(F)cc3)cc(=O)n12 | inconclusive: 25.1 µM [inhibitor, partial curve, poor fit] | –
CCn1cc(CN2CCCC23CCN(c2cc(C)nc4ccccc24)CC3)cn1 | inconclusive: 28.2 µM [inhibitor, partial curve, poor fit] | –
COCCNC(=O)C[C@@H]1C[C@@H](C(C)C)[C@H](CNC(=O)CCC(=O)O)C=C1C | inconclusive: 39.8 µM [inhibitor, partial curve, poor fit] | –
Cc1cc(=O)oc2cc(OCC(=O)NC(=O)NC3CCCCC3)ccc12 | inconclusive: 22.4 µM [inhibitor, partial curve, poor fit] | –
Fc1ccc(Nc2nc(SCc3ccccc3Cl)nc3ccccc23)cc1 | inconclusive: 28.2 µM [inhibitor, partial curve, poor fit] | –
CC(C)Cn1c2c(c(=O)[nH]c1=O)C(c1ccc(F)cc1)C1=C(COC1=O)N2 (stereo not given) | inconclusive: 25.1 µM [inhibitor, partial curve, poor fit] | –
O=S(=O)(Oc1ccccc1C(=S)N1CCOCC1)c1ccc(Cl)cc1 | – | inactive: -14.3%
Cc1cccc(NCc2cc(C(C)(C)C)c(O)c(C(C)(C)C)c2)c1 | inconclusive: 31.6 µM [inhibitor, partial curve, poor fit] | –
O=C(c1cc2cc(Br)ccc2oc1=O)N1CCN(S(=O)(=O)c2ccccc2)CC1 | – | inactive: 26%
Cc1cc(=O)oc2cc(OCC(=O)NCCC#N)c(Cl)cc12 | inconclusive: 22.4 µM [inhibitor, partial curve, poor fit] | –
CC(=O)N1CCCN(c2ncnc3c2CN(C2CCCNCC2)C(=O)CN3C)CC1 (stereo not given) | – | inactive: 2.3% [at 115 µM]
COc1ccccc1-c1[nH]nc2ncc(-c3cccc(O)c3)nc12 | active: 35.5 µM | –
COC(=O)c1ccc(CN2C(=O)[C@@H]3C[C@@H](O)CN3C3(CNC3)C2=O)cc1 | – | inactive: -5.98% [at 86.2 µM]
COc1ccc(-n2nc3ccc(NC(=O)c4c(OC)cccc4OC)cc3n2)cc1 | inconclusive: 15.8 µM [inhibitor, partial curve, poor fit] | –
O=C(Cn1c(=O)n(-c2ccc(F)cc2)c(=O)c2sc3ccccc3c21)NC1CCCC1 | inconclusive: 4.47 µM [inhibitor, full curve, poor fit] | –
COc1ccc(Oc2coc3cc(OCc4ccccc4C)ccc3c2=O)cc1 | – | inactive: -13%
Nc1ccc2c(c1)C(=O)NC2 | inconclusive: 25.1 µM [inhibitor, partial curve, poor fit] | –
O=C(Nc1ccc2oc(-c3ccc(F)cc3)nc2c1)c1ccccc1F | inconclusive: 1.78 µM [inhibitor, full curve, poor fit] | –
OCCC#CCN1CCCCC1 | – | inactive: 10.8%

Compound | Potency | activity change, negative = inhibition
CCc1c(C)sc2c1CCN(Cc1cccc(OC)c1)C2c1ccccc1 (stereo not given) | inconclusive: 28.2 µM [inhibitor, partial curve, poor fit] | –
CC(C(=O)O)n1cnc2ccccc21 (stereo not given) | – | inactive: -17.1%
COc1cc(NC(=O)COc2ccc3c(C)c(C)c(=O)oc3c2C)cc(OC)c1OC | – | inactive: 4.28%
COc1cccc(-c2ccnc3nc(Cc4ccc(F)cc4)nn23)c1 | active: 25.1 µM | –
Cc1ccc(CSC2=Nc3ccccc3C3=NC(CCC(=O)NC4CCCCC4)C(=O)N23)cc1 (stereo not given) | inconclusive: 15.8 µM [inhibitor, partial curve, poor fit] | –
COc1ccc(C)cc1-c1cn(C)c(=O)n2cc(COc3ccc(Cl)cc3)nc12 | inconclusive: 28.2 µM [inhibitor, partial curve, poor fit] | –
O=C(Cn1nc2c(cc1=O)CCCCC2)N1CC=C(c2c[nH]c3ccccc23)CC1 | active: 17.8 µM | –
COc1ccc(/C=C/c2nc(C#N)c(NCCCN(C)C)o2)cc1OC | inconclusive: 22.4 µM [inhibitor, partial curve, poor fit] | –
O=C1[C@@H]2C[C@@H](CN2Cc2cnc3ccccc3c2)Oc2ccccc2N1Cc1ccccc1 | inconclusive: 22.4 µM [inhibitor, partial curve, poor fit] | –
Cc1ccc(-c2nnn(Cc3ncc(-c4ccccc4)o3)n2)cc1 | – | inactive: 8.17%
COCCNC(=O)N1CCC2(CC1)CN(C)CC2COC (stereo not given) | inconclusive: 25.1 µM [inhibitor, partial curve, poor fit] | –
COCC1CN(C2CCC2)CC12CCN(S(=O)(=O)c1cnc[nH]1)CC2 (stereo not given) | inconclusive: 22.4 µM [inhibitor, partial curve, poor fit] | –
COCCn1c2c(c(=O)n1-c1ccccc1)CCN(Cc1cccc(C#N)c1)C2 | inconclusive: 28.2 µM [inhibitor, single point] | –
Cc1nc2c3cccnc3nn2c(C)c1CCC(=O)Nc1cccc(Br)c1 | – | inactive: -76.1%
CN(C)c1ccc2nnc(-c3cc(C(=O)N(C)c4ccccc4)ccn3)n2n1 | inconclusive: 35.5 µM [inhibitor, single point] | –
Cc1ccccc1NC(=O)c1cc2c(-c3ccccc3)nn(-c3ccccc3)c2s1 | inconclusive: 11.2 µM [inhibitor, partial curve, poor fit] | –
COc1ccc(N(Cc2ccccc2)C(=O)c2nc(S(C)(=O)=O)ncc2Cl)cc1 | inconclusive: 8.91 µM [inhibitor, partial curve, poor fit] | –
CC(C)NC(=O)NC(=O)COC(=O)c1cc(-c2cccs2)nc2ccccc12 | inconclusive: 35.5 µM [inhibitor, partial curve, poor fit] | –
N#Cc1cc2n(n1)CCCN(C(=O)CC(c1ccccc1)c1ccco1)C2 (stereo not given) | – | inactive: 10.6%
O=C(CCN1CCN(c2ccccc2)CC1)c1ccc(Cl)cc1 | inconclusive: 39.8 µM [inhibitor, single point] | –
O=C(c1cccc2[nH]ccc12)N1CCC2(CC1)N=C(c1ccc(Cl)cc1)NO2 | inconclusive: 28.2 µM [inhibitor, partial curve, poor fit] | –
